Paper PMC9574860, “Chemical Toolkit for PARK7: Potent, Selective, and High-Throughput” (Journal of Medicinal Chemistry, 2022)
In all, about 7,900 compounds went through this assay and about 400 (5.1%) showed an effect of 50% or more. The list shows a part of the results.

These compounds were tested against Parkinson's disease protein 7 (PARK7/DJ1) (human, UniProt Q99497) (assay: primary screen, percent inhibition; read as competition with a fluorescent probe by fluorescence polarization; higher = more effect of the substance). Conditions: 100 µM.
Chain of Parkinson's disease protein 7 (PARK7/DJ1) (Q99497 whole entry, looked up, the tested form may be a part): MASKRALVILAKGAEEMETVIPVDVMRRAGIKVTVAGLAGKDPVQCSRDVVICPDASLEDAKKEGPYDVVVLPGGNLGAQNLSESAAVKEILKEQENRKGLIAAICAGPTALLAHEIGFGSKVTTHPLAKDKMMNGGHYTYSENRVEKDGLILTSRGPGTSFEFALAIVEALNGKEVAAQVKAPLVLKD
Summary of the method: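 Covalent fragments at 100 μM final were incubated 2 h with 0.2 μM PARK7, then 20 nM probe JYQ-107 added for a further 2 h. Fluorescence polarization read at 480/520 nm; relative FP loss versus reference controls gave remaining enzyme activity.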

Row | Compound | Inhibition %
1 | COc1ccc(C)cc1Cn1cnc(C#N)n1 | 5.73%
2 | O=C(Nc1ccccc1)c1cccnc1S | 3.52%
3 | O=C1CCc2cc(C(=O)CCl)c(F)cc2N1 | 1.18%
4 | N#Cc1cc(C(=O)O)ccn1 | 4.99%
5 | CC(C)(C)Oc1ccc(C#N)nc1 | 8.71%
6 | O=C(CCCl)N1CCc2sccc2C1 | 33.2%
7 | COc1ccc(C=O)c(O)c1 | 8.29%
8 | C=CC(=O)N1CCN(C(=O)Cc2c(C)noc2C)CC1 | 7.05%
9 | N#CC(=Cc1ccc(O)c(O)c1)C(=O)N1CCCC1 | 28.9%
10 | Cc1c(NC(=O)CCl)c(=O)n(-c2ccccc2)n1C | 18.9%
11 | C=CC(=O)Nc1cnn(C(C)C)c1C1CC1 | 10.5%
12 | c1ccc(C2OCC3(CCC4OC4C3)CO2)cc1 (stereo not shown) | 8.47%
13 | Cc1cc(N2CCC2=O)n(C)n1 | 11.3%
14 | OB(O)C1=CCN(Cc2cc3n(n2)CCC3)CC1 | 33.1%
15 | C=CC(=O)N1CCCC1c1cncc(C)c1 (stereo not shown) | 17.8%
16 | CN(C)C=O.Cc1c(C(=O)O)sc2nc(S)[nH]c(=O)c12 | 4.25%
17 | CN(C)C(=O)c1ccc(NC(=O)CCl)cc1 | 44.1%
18 | N#CC1CC2(CC(=O)N2)C1 (stereo not shown) | 5.93%
19 | C=CC(=O)Nc1ccc2occc2c1 | 9.28%
20 | C=CC(=O)N1CCN(C(C)c2ncc(C)s2)CC1 (stereo not shown) | 6.75%
21 | N#CC(=Cc1ccc(Cl)cc1)c1ccno1 | 2.84%
22 | CCc1nc(C#N)c(NCc2ccccc2Cl)o1 | 3.03%
23 | NC(=O)C1CCN(S(=O)(=O)C=Cc2ccccc2)CC1 | 9.73%
24 | Cc1csc(CNC(=O)C(C#N)=Cc2ccco2)n1 | 8.21%
25 | C=CC(=O)N1CC(C)(C)OC2(CCCOC2)C1 (stereo not shown) | 11.2%
26 | COCC1CN(C(=O)c2c[nH]c(C#N)c2)CC(C)(C)O1 (stereo not shown) | 10.6%

Row | Compound | Inhibition %
27 | N#CCCN(C(=O)CCl)c1ccccc1F | 33.7%
28 | CC1(C)OB(C2=CCN(C(N)=O)CC2)OC1(C)C | 13.9%
29 | CN(Cc1ccncc1)c1ccc(Cl)c(C#N)n1 | 6.1%
30 | C=CC(=O)N1C[C@H](C(N)=O)[C@@H](c2cnn(C)c2)C1 | -0.998%
31 | O=C(CCl)Nc1ccc(OC(F)F)c(Cl)c1 | 45.8%
32 | C=CC(=O)NC1CCOc2c(Cl)cccc21 (stereo not shown) | 7.42%
33 | N#CC(=Cc1cccnc1)C(N)=O | 3.72%
34 | C=CC(=O)N1CCCC(n2nc(C)cc2C)C1 (stereo not shown) | 6.14%
35 | O=C(O)C=CC(=O)NCc1ccncc1 | 22.4%
36 | C=CC(=O)N1CSCC1C(=O)N(C)C (stereo not shown) | 7.82%
37 | C=CC(=O)NC(C)C(=O)N1CCc2ccccc21 (stereo not shown) | 6.75%
38 | Cc1noc(C)c1CNC(=O)CCl | 46.7%
39 | O=C(O)c1ccc(CN2C(=O)CCC2=O)cc1 | 1.74%
40 | O=C(CCl)Nc1ccc(S(=O)(=O)N2CCCCC2)cc1 | 92.7%
41 | C=CC(=O)N1CC(CC2CCOCC2)C1 | 6.04%
42 | Sc1nccc2ccccc12 | 13.7%
43 | CCC1(O)CN(c2cccc(C#N)n2)C1 | 7.19%
44 | N#CN=C(N)c1ccccc1 | 4.36%
45 | Cl.ClCCn1cc(-c2ccccc2)cn1 | 6.06%
46 | O=C(C=Cc1cccnc1)N1CCc2ccccc21 | 4.92%
47 | Nc1cncc(S(=O)(=O)F)c1 | 95.6%
48 | N#Cc1nncn1CC(=O)Nc1ccc(F)cc1 | -3.5%
49 | CC(=O)N1CCc2sc(C(=O)CCl)cc2C1 | 73.5%
50 | Cc1ccc(N2C(=O)CN=C2S)cc1C | 3.06%
51 | O=C(CCCl)Nc1ccc(N2CCCC2=O)cc1 | 7.14%
52 | CC(C)NC(=O)C(C#N)=Cc1ccc(C(F)(F)F)[nH]1 | 4.8%

Row | Compound | Inhibition %
53 | O=C(c1ccc(F)cc1)N1CCCCC(Cl)C1=O (stereo not shown) | -4.93%
54 | C=C(C)c1nc(C#N)c(NCc2ccc(F)cc2)o1 | 5.36%
55 | C=CC(=O)NCc1ccc2c(c1)OCCO2 | 2.74%
56 | O=C(CCl)NCc1ccccc1Cn1cccn1 | 18.8%
57 | COc1nnc(CCCl)s1 | 6.72%
58 | COc1cc(C)ccc1S(=O)(=O)n1nc(C)cc1C | 6.17%
59 | C=CC(=O)N(C)CC1CCn2ccnc2C1 (stereo not shown) | 25.9%
60 | N#CC(=Cc1ccc(O)c(O)c1)C(=O)NC1CCCCC1 | 24.4%
61 | CCCNC(=O)C(C#N)=Cc1ccnc(O)c1 | 9.15%
62 | C=CC(=O)N1CCN(C(=O)CCOC)CC1 | 5.99%
63 | NCC1CC2(CC(=O)N2)C1 (stereo not shown) | 4.98%
64 | O=C(CN1CSCC1=O)Nc1ccc2c(c1)B(O)OCC2 | 7.53%
65 | C=CC(=O)NCC1CCc2ccccc21 (stereo not shown) | 1.96%
66 | CCc1nnc(CN(C#N)c2ccc(F)cc2)o1 | 13.8%
67 | C=CC(=O)NC1CC(OC)C1 (stereo not shown) | 4.59%
68 | CS(=O)(=O)OC1CCOC(c2cccnc2)C1 (stereo not shown) | 6.42%
69 | CCCSCc1cccc(B2OC(C)(C)C(C)(C)O2)c1 | -1.56%
70 | NC(=O)c1ccccc1NC(=O)CCl | 0.06%
71 | CC(C)c1nn(C)cc1CN(C)C(=O)c1cccnc1S | 11.2%
72 | C=CC(=O)N(Cc1cccs1)c1ccc2c(c1)OCCO2 | 7.71%
73 | C=CC(=O)NCC1(C)CC2CC2C1 (stereo not shown) | 9.96%
74 | C=CC(=O)N1CCC(c2ncco2)CC1 | -1.83%
75 | O=C(NCC(F)(F)F)n1ccnc1 | 6.27%
76 | Cc1nc(C#N)c(NCc2ccccc2)o1 | 5.82%
77 | O=C(N1CCCCCC1)n1ccnc1 | 10.3%
78 | CCc1cnccc1C(=O)N1CCCCC1C1OCCO1 (stereo not shown) | 10.2%

Row | Compound | Inhibition %
79 | N#CC(=Cc1cccc(F)c1F)C(N)=O | 11.5%
80 | C=CCNC(=O)C(C#N)=CC1=Cc2ccccc2OC1 | 11.3%
81 | O=S(=O)(C=Cc1ccccc1)NCc1nnc2n1CCC2 | 11.5%
82 | C=CC(=O)Nc1cnn(COC)c1 | 17.1%
83 | CCCNC(=O)C(C#N)=Cc1oc(C)nc1C | 19.4%
84 | O=S(=O)(F)CCN1c2ccccc2CC1CO (stereo not shown) | 19%
85 | O=C1N[C@H](C(=O)O)CS1 | 27%
86 | C=CC(=O)N1CCSCC1c1nccs1 (stereo not shown) | 4.55%
87 | COc1cc(C)c(S(=O)(=O)n2cccn2)cc1C | 3.89%
88 | COc1ccc(C2CCCN2C(=O)CCl)c(OC)c1 (stereo not shown) | 20.8%
89 | CC(=O)Nc1ccc(SC2CC(C)OC2=O)cc1 (stereo not shown) | 2.06%
90 | CC1(C)OB(c2cc3ccccc3cc2Br)OC1(C)C | 11.9%
91 | O=C(CCl)c1ccc(O)cc1 | 86.7%
92 | C=CC(=O)NC(C)C12CCCCC1C2 (stereo not shown) | 2.87%
93 | CC1CCC(C)N(C(=O)c2cc(B(O)O)ccc2F)C1 (stereo not shown) | 0.286%
94 | O=C1CCCN1CCCl | 5.09%
95 | CCOc1ccc(S(=O)(=O)n2cccn2)cc1 | 9.76%
96 | O=S(=O)(F)c1ccc2c(c1)NCC2 | 26.6%
97 | N#Cc1ccc2cc[nH]c2n1 | 68.4%
98 | N#Cc1cccc(NC(=O)CCl)c1 | 7.05%
99 | CC(=O)Nc1ccc(Sc2nccnc2C#N)cc1 | 18.2%
100 | CCOCOc1cnccc1B1OC(C)(C)C(C)(C)O1 | 12.4%
101 | Cc1nc(CN(C#N)c2ccc(F)cc2)oc1C | 13.5%
102 | C=CC(=O)N1CCOc2ncccc21 | 20%
103 | CC1(C)OB(c2cncc(F)c2)OC1(C)C | 4.04%
104 | C=CC(=O)NCCc1cnc2c(Cl)cnn2c1 | 9.87%

Row | Compound | Inhibition %
105 | O=C(CCc1ccc(S(=O)(=O)F)cc1)NC1CCCC1 | 2.71%
106 | C=CC(=O)N1CCN(C(=O)CN2C(=O)CCC2=O)CC1 | 6.08%
107 | CC(NC(=O)CCl)c1ccc(Cl)c(Cl)c1 (stereo not shown) | 7.15%
108 | C=CC(=O)N1CCOc2cc(F)ccc21 | 9.72%
109 | Cc1nc(Sc2nccnc2C#N)oc1C | 9.16%
110 | OCC1(Cl)CCOCC1 | 6.53%
111 | C=CC(=O)Nc1cc2ccccn2n1 | 30.2%
112 | Cc1nc2cc(B3OC(C)(C)C(C)(C)O3)ccc2n1C.Cl | 14.5%
113 | Cc1ccc(F)cc1B1OC(C)(C)C(C)(C)O1 | 3.3%
114 | CC1(C)OB(c2ccccc2Cl)OC1(C)C | 1.84%
115 | O=C(CC1OCCCO1)Nc1n[nH]c2cc(F)ccc12 | 12.7%
116 | O=C1CCC(=O)N1CCc1cccc(OC(F)(F)F)c1 | -3.11%
117 | C=CC(=O)N1CCc2nn(C(C)C)c(=O)cc2C1 | 15.2%
118 | C=CC(=O)N1CCN(c2ncc(C)s2)CC1 | 9%
119 | Cc1csc(N2CCN(C3CC(C)OC3=O)CC2C)n1 (stereo not shown) | 1.27%
120 | COc1cc(C)c(Cl)cc1S(=O)(=O)n1nc(C)cc1C | -0.373%
121 | CNc1nc(SC2CCOC2=O)nc2ccccc12 (stereo not shown) | 6.64%
122 | COC(=O)c1ccc(CN(C#N)c2ccccc2)o1 | 14.6%
123 | Cc1onc(-c2ccc(F)cc2)c1B1OC(C)(C)C(C)(C)O1 | 5.39%
124 | C=CC(=O)N1CC(C(=O)NC)C1 | 4.07%
125 | Cc1cc(-c2ccccc2)nc(S)n1 | 2.88%
126 | OB(O)c1ccc(Oc2cccc(C(F)(F)F)c2)cc1 | -1.1%
127 | O=C(N1CCCCC1)n1ccnc1 | 4.01%
